Measured values: the supplement of paper PMC4967469
Lines with a small IC50 respond at low doses; a fit beyond the top or the lowest dose is shown as a bound at that dose. AUC is the area under the same curve over the 256-fold range up to the top dose, as a fraction; the more sensitive the line, the further below 1. For part of these data: An inferred top dose was derived from the fitted curves, not read from the paper. For part of these data: Where an entry number is given, a second screen of the drug exists; the two often differ.

How the values were obtained:
Assay in all cases: Viability of human cancer cell lines after 72 h of drug (GDSC screen)
[1] = compound: C/C(O)=C(\C#N)C(=O)Nc1cc(Br)ccc1Br [LFM-A13]; settings: top dose 16 µM; top dose inferred
Method: (§1)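 Human cancer cell lines in 384-well plates, medium with 10% serum, drug for 72 h over a 256-fold dose range (nine 2-fold or five 4-fold steps up to the top dose). Adherent lines were fixed and stained with the nucleic acid dye Syto60, suspension lines read with resazurin; signal relative to control wells, capped at 0 and 100%. One two-parameter sigmoid per drug and line, fitted in a mixed model over all curves with the slope shared within a line.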

[2] = compound: CC(C)c1ccccc1Cc1cc(C(=O)Nc2ccc(S(=O)(=O)c3ccccc3C(C)(C)C)cc2)c(O)c(O)c1O [TW-37]; settings: top dose 5 µM
Method: as §1

[3] = compound: CC(O)(CS(=O)(=O)c1ccc(F)cc1)C(=O)Nc1ccc(C#N)c(C(F)(F)F)c1 [Bicalutamide]; settings: top dose inferred
Method: as §1

[4] = compound: CCNC(=O)c1noc(-c2cc(C(C)C)c(O)cc2O)c1-c1ccc(CN2CCOCC2)cc1 [AUY922]; settings: top dose 0.256 µM; top dose inferred
Method: as §1

[5] = compound: Cc1ccc(Nc2cc(-c3cccc(N4C(=O)c5ccccc5C4=O)c3)ncn2)cc1NS(C)(=O)=O [KIN001-270]; settings: top dose 20 µM; top dose inferred
Method: as §1

[6] = compound: Cc1cn(-c2cc(NC(=O)c3ccc(C)c(Nc4nccc(-c5cccnc5)n4)c3)cc(C(F)(F)F)c2)cn1 [Nilotinib]; settings: top dose 2 µM
Method: as §1

[7] = compound: Nc1ccn([C@@H]2O[C@H](CO)[C@@H](O)C2(F)F)c(=O)n1 [Gemcitabine]; settings: top dose 1.024 µM
Method: as §1

[8] = compound: O=S(=O)(c1ccccc1)N(CC(F)(F)F)c1ccc(C(O)(C(F)(F)F)C(F)(F)F)cc1 [T0901317]; settings: top dose 10.24 µM; top dose inferred
Method: as §1

[9] = compound: S=C(NCc1ccc2c(c1)OCO2)N1CCN(c2ncnc3c2oc2ccccc23)CC1 [MP470]; settings: top dose 20 µM; top dose inferred
Method: as §1

[10] = top dose 1.024 µM, screen: GDSC drug entry 150
[11] = top dose 10 µM, screen: GDSC drug entry 1502

OVKATE (ovary, adherent)
AUC [1]: 0.961 | IC50 [1]: > 16000 nM | AUC [2]: 0.796 | IC50 [2]: 4500 nM | AUC [3, 10]: 0.977 | IC50 [3, 10]: > 1020 nM | AUC [4]: 0.978 | IC50 [4]: > 256 nM | AUC [5]: 0.907 | IC50 [5]: > 20000 nM | AUC [6]: 0.979 | IC50 [6]: > 2000 nM | AUC [7]: 0.966 | IC50 [7]: > 1020 nM | AUC [8]: 0.979 | IC50 [8]: > 10200 nM | AUC [9]: 0.973 | IC50 [9]: > 20000 nM

SW1417 (large intestine, adherent)
AUC [1]: 0.974 | IC50 [1]: > 16000 nM | AUC [2]: 0.7 | IC50 [2]: 1270 nM | AUC [3, 10]: 0.986 | IC50 [3, 10]: > 1020 nM | AUC [3, 11]: 0.977 | IC50 [3, 11]: > 10000 nM | AUC [4]: 0.925 | IC50 [4]: > 256 nM | AUC [5]: 0.986 | IC50 [5]: > 20000 nM | AUC [6]: 0.986 | IC50 [6]: > 2000 nM | AUC [7]: 0.951 | IC50 [7]: > 1020 nM | AUC [8]: 0.979 | IC50 [8]: > 10200 nM | AUC [9]: 0.956 | IC50 [9]: > 20000 nM

M14 (melanoma, adherent)
AUC [1]: 0.982 | IC50 [1]: > 16000 nM | AUC [2]: 0.802 | IC50 [2]: 2620 nM | AUC [3, 10]: 0.983 | IC50 [3, 10]: > 1020 nM | AUC [3, 11]: 0.978 | IC50 [3, 11]: > 10000 nM | AUC [4]: 0.837 | IC50 [4]: 185 nM | AUC [5]: 0.983 | IC50 [5]: > 20000 nM | AUC [6]: 0.986 | IC50 [6]: > 2000 nM | AUC [7]: 0.649 | IC50 [7]: 170 nM | AUC [8]: 0.973 | IC50 [8]: > 10200 nM | AUC [9]: 0.977 | IC50 [9]: > 20000 nM

ES6 (Ewing sarcoma, adherent)
AUC [1]: 0.957 | IC50 [1]: > 16000 nM | AUC [2]: 0.526 | AUC [3, 10]: 0.982 | IC50 [3, 10]: > 1020 nM | AUC [3, 11]: 0.976 | IC50 [3, 11]: > 10000 nM | AUC [4]: 0.37 | IC50 [4]: 6.42 nM | AUC [5]: 0.945 | IC50 [5]: > 20000 nM | AUC [6]: 0.982 | IC50 [6]: > 2000 nM | AUC [7]: 0.178 | IC50 [7]: 5.14 nM | AUC [8]: 0.979 | IC50 [8]: > 10200 nM | AUC [9]: 0.942 | IC50 [9]: > 20000 nM

8505C (thyroid, adherent)
AUC [1]: 0.95 | IC50 [1]: > 16000 nM | AUC [2]: 0.46 | IC50 [2]: 241 nM | AUC [3, 10]: 0.985 | IC50 [3, 10]: > 1020 nM | AUC [4]: 0.409 | IC50 [4]: 8.89 nM | AUC [5]: 0.948 | IC50 [5]: > 20000 nM | AUC [6]: 0.934 | IC50 [6]: > 2000 nM | AUC [7]: 0.142 | IC50 [7]: 4.44 nM | AUC [8]: 0.985 | IC50 [8]: > 10200 nM | AUC [9]: 0.959 | IC50 [9]: > 20000 nM

PANC-04-03 (pancreas, adherent)
AUC [1]: 0.972 | IC50 [1]: > 16000 nM | AUC [2]: 0.654 | IC50 [2]: 1090 nM | AUC [3, 10]: 0.977 | IC50 [3, 10]: > 1020 nM | AUC [4]: 0.621 | IC50 [4]: 42.3 nM | AUC [5]: 0.97 | IC50 [5]: > 20000 nM | AUC [6]: 0.96 | IC50 [6]: > 2000 nM | AUC [7]: 0.696 | IC50 [7]: 320 nM | AUC [8]: 0.969 | IC50 [8]: > 10200 nM | AUC [9]: 0.977 | IC50 [9]: > 20000 nM

BICR22 (head and neck, adherent)
AUC [1]: 0.958 | IC50 [1]: > 16000 nM | AUC [2]: 0.491 | IC50 [2]: 294 nM | AUC [3, 10]: 0.983 | IC50 [3, 10]: > 1020 nM | AUC [3, 11]: 0.962 | IC50 [3, 11]: > 10000 nM | AUC [4]: 0.685 | IC50 [4]: 57.3 nM | AUC [5]: 0.982 | IC50 [5]: > 20000 nM | AUC [6]: 0.874 | IC50 [6]: > 2000 nM | AUC [7]: 0.777 | IC50 [7]: 474 nM | AUC [8]: 0.983 | IC50 [8]: > 10200 nM | AUC [9]: 0.347 | IC50 [9]: 441 nM

SK-MEL-24 (melanoma, adherent)
AUC [1]: 0.947 | IC50 [1]: > 16000 nM | AUC [2]: 0.54 | AUC [3, 10]: 0.982 | IC50 [3, 10]: > 1020 nM | AUC [3, 11]: 0.939 | IC50 [3, 11]: > 10000 nM | AUC [4]: 0.571 | IC50 [4]: 26 nM | AUC [5]: 0.961 | IC50 [5]: > 20000 nM | AUC [6]: 0.98 | IC50 [6]: > 2000 nM | AUC [7]: 0.976 | IC50 [7]: > 1020 nM | AUC [8]: 0.982 | IC50 [8]: > 10200 nM | AUC [9]: 0.983 | IC50 [9]: > 20000 nM

LS-180 (large intestine, adherent)
AUC [1]: 0.979 | IC50 [1]: > 16000 nM | AUC [2]: 0.84 | IC50 [2]: 4190 nM | AUC [3, 10]: 0.942 | IC50 [3, 10]: > 1020 nM | AUC [3, 11]: 0.977 | IC50 [3, 11]: > 10000 nM | AUC [4]: 0.655 | IC50 [4]: 46 nM | AUC [5]: 0.984 | IC50 [5]: > 20000 nM | AUC [6]: 0.983 | IC50 [6]: > 2000 nM | AUC [7]: 0.131 | IC50 [7]: < 4 nM | AUC [8]: 0.979 | IC50 [8]: > 10200 nM | AUC [9]: 0.904 | IC50 [9]: > 20000 nM

AGS (stomach, adherent)
AUC [1]: 0.98 | IC50 [1]: > 16000 nM | AUC [2]: 0.262 | IC50 [2]: 71.5 nM | AUC [3, 10]: 0.99 | IC50 [3, 10]: > 1020 nM | AUC [4]: 0.451 | IC50 [4]: 11.9 nM | AUC [5]: 0.972 | IC50 [5]: > 20000 nM | AUC [6]: 0.983 | IC50 [6]: > 2000 nM | AUC [7]: 0.089 | IC50 [7]: < 4 nM | AUC [8]: 0.979 | IC50 [8]: > 10200 nM | AUC [9]: 0.947 | IC50 [9]: > 20000 nM

SBC-5 (small cell lung carcinoma, adherent)
AUC [1]: 0.993 | IC50 [1]: > 16000 nM | AUC [2]: 0.436 | IC50 [2]: 216 nM | AUC [3, 10]: 0.992 | IC50 [3, 10]: > 1020 nM | AUC [3, 11]: 0.992 | IC50 [3, 11]: > 10000 nM | AUC [4]: 0.592 | IC50 [4]: 27.2 nM | AUC [5]: 0.99 | IC50 [5]: > 20000 nM | AUC [6]: 0.977 | IC50 [6]: > 2000 nM | AUC [7]: 0.023 | IC50 [7]: < 4 nM | AUC [8]: 0.987 | IC50 [8]: > 10200 nM | AUC [9]: 0.444 | IC50 [9]: 907 nM

JEG-3 (urogenital system, adherent)
AUC [1]: 0.991 | IC50 [1]: > 16000 nM | AUC [2]: 0.581 | IC50 [2]: 509 nM | AUC [3, 10]: 0.991 | IC50 [3, 10]: > 1020 nM | AUC [3, 11]: 0.975 | IC50 [3, 11]: > 10000 nM | AUC [4]: 0.689 | IC50 [4]: 50.8 nM | AUC [5]: 0.991 | IC50 [5]: > 20000 nM | AUC [6]: 0.99 | IC50 [6]: > 2000 nM | AUC [7]: 0.482 | IC50 [7]: 57.6 nM | AUC [8]: 0.972 | IC50 [8]: > 10200 nM | AUC [9]: 0.51 | IC50 [9]: 1330 nM

LOU-NH91 (lung squamous cell carcinoma, adherent)
AUC [1]: 0.966 | IC50 [1]: > 16000 nM | AUC [2]: 0.496 | IC50 [2]: 305 nM | AUC [3, 10]: 0.985 | IC50 [3, 10]: > 1020 nM | AUC [3, 11]: 0.981 | IC50 [3, 11]: > 10000 nM | AUC [4]: 0.905 | IC50 [4]: > 256 nM | AUC [5]: 0.986 | IC50 [5]: > 20000 nM | AUC [6]: 0.986 | IC50 [6]: > 2000 nM | AUC [7]: 0.932 | IC50 [7]: > 1020 nM | AUC [8]: 0.983 | IC50 [8]: > 10200 nM | AUC [9]: 0.982 | IC50 [9]: > 20000 nM

KYSE-70 (oesophagus, adherent)
AUC [1]: 0.976 | IC50 [1]: > 16000 nM | AUC [2]: 0.83 | IC50 [2]: 3560 nM | AUC [3, 10]: 0.985 | IC50 [3, 10]: > 1020 nM | AUC [3, 11]: 0.979 | IC50 [3, 11]: > 10000 nM | AUC [4]: 0.544 | IC50 [4]: 21.4 nM | AUC [5]: 0.986 | IC50 [5]: > 20000 nM | AUC [6]: 0.986 | IC50 [6]: > 2000 nM | AUC [7]: 0.711 | IC50 [7]: 269 nM | AUC [8]: 0.979 | IC50 [8]: > 10200 nM | AUC [9]: 0.945 | IC50 [9]: > 20000 nM
